This passage reports normalized ECL signal results from patent US20030207290A1 (MESO SCALE TECHNOLOGIES, published 2003).

Entries with a single value are a further part of the results.

In the test the target is IkBa phosphopeptide (IkBa-24pp), …(p)SGLD(p)SMKDEEYC
In words: ECL 7-spot plate screen, peptide-BSA spot, biotinylated TnT protein, Ru-streptavidin; signal normalized in two steps.

IkBa phosphopeptide (IkBa-24pp), …(p)SGLD(p)SMKDEEYC, sequence (peptide, as listed by the source): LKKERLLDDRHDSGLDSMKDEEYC

B1: βTRCP2 (EST clone IMAGE 4237375), in vitro translated, biotin-labelled (other, human, UniProt Q9UKB1 1-542, looked up)
chain: MEPDSVIEDKTIELMCSVPRSLWLGCANLVESMCALSCLQSMPSVRCLQISNGTSSVIVSRKRPSEGNYQKEKDLCIKYFDQWSESDQVEFVEHLISRMCHYQHGHINSYLKPMLQRDFITALPEQGLDHIAENILSYLDARSLCAAELVCKEWQRVISEGMLWKKLIERMVRTDPLWKGLSERRGWDQYLFKNRPTDGPPNSFYRSLYPKIIQDIETIESNWRCGRHNLQRIQCRSENSKGVYCLQYDDEKIISGLRDNSIKIWDKTSLECLKVLTGHTGSVLCLQYDERVIVTGSSDSTVRVWDVNTGEVLNTLIHHNEAVLHLRFSNGLMVTCSKDRSIAVWDMASATDITLRRVLVGHRAAVNVVDFDDKYIVSASGDRTIKVWSTSTCEFVRTLNGHKRGIACLQYRDRLVVSGSSDNTIRLWDIECGACLRVLEGHEELVRCIRFDNKRIVSGAYDGKIKVWDLQAALDPRAPASTLCLRTLVEHSGRVFRLQFDEFQIISSSHDDTILIWDFLNVPPSAQNETRSPSRTYTYISR
modifications: biotin on some lysine residues (incorporated at random from biotin-Lys-tRNA)
notes: Product of a coupled transcription/translation reaction, used without purification; also called βTRCP [c]; bTRCP2
With B1, the normalized ECL signal runs as follows: (clone grown in well format) 3; (control clone) 38.
